The inconclusive results got no clear call from the source; some entries with a clear call stand among them for comparison. For some assays here: Potencies of inconclusive entries are doubtful fits and often do not repeat. For some assays here: “Side channel” marks fits to a control or component signal instead of the main read-out. Activity calls are given as the source filed them. Unless noted, calls come from the whole dose curve; as a rule, active = well fitted curve in the direction sought with a large enough effect; inconclusive = small, poorly fitted or top-dose-only effect, or another doubt; inactive = no such curve, though single readings can be large; an effect the other way counts as inactive or inconclusive.
Tests used:
[1] = target: Bile acid receptor (Homo sapiens) (UniProt Q96RI1); experiment: qHTS assay for small molecule antagonists of farnesoid X receptor signaling (AID 588526; calls by dose curve; note: % is set by controls: 0 for no effect and ±100 for the full control effect); details: HEK293T FXR-UAS-bla, beta-lactamase ratio, antagonist mode; activity change, negative = inhibition: at 76.7 µM (top of the series)
Method in brief: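 Antagonist mode: titrated compounds tested against chenodeoxycholic acid stimulation (normalized to 50 uM CDCA and DMSO) in GeneBLAzer HEK293T cells for 16 h. Beta-lactamase read by CCF4 fluorescence; IC50 from Hill fits.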

[2] = target: Bile acid receptor (Homo sapiens) (UniProt Q96RI1); experiment: qHTS assay for small molecule agonists of farnesoid X receptor signaling (AID 588527; calls by dose curve; note: potency is the fitted concentration of half-maximal effect); details: HEK293T FXR-UAS-bla, beta-lactamase ratio, 16 h
Method in brief: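 Quantitative HTS used FXR-UAS-bla HEK293T cells with 16 h compound incubation at 37 C. EC50 values came from concentration-response curves normalized to chenodeoxycholic acid.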

[3] = target: Glucocorticoid receptor (Homo sapiens) (UniProt P04150); experiment: qHTS assay for small molecule antagonists of glucocorticoid receptor signaling (AID 588533; active = well fitted inhibition curve with a large enough effect in the signal ratio, with a control signal flat, not every such curve was filed as active; inconclusive = small, poorly fitted or top-dose-only effect, or effect the other way, or a change in a side signal; the % refers to the signal ratio;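 note: cells stimulated with 2 nM dexamethasone as agonist; potency is the fitted concentration of half-maximal effect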); details: HeLa MMTV-bla, GRE beta-lactamase ratio, antagonist mode, 18 h; activity change, negative = inhibition: at 76.8 µM (top of the series)
[4] = target: Peroxisome proliferator-activated receptor delta (Homo sapiens) (UniProt Q03181); experiment: qHTS assay for small molecule agonists of peroxisome proliferator-activated receptor delta signaling (AID 588534; calls by dose curve; note: potency is the fitted concentration of half-maximal effect); details: HEK293T PPARdelta-UAS-bla, beta-lactamase ratio, 18 h; activation: at 76.7 µM (top of the series)
UniProt Q03181, sequence (Q03181 whole entry, looked up): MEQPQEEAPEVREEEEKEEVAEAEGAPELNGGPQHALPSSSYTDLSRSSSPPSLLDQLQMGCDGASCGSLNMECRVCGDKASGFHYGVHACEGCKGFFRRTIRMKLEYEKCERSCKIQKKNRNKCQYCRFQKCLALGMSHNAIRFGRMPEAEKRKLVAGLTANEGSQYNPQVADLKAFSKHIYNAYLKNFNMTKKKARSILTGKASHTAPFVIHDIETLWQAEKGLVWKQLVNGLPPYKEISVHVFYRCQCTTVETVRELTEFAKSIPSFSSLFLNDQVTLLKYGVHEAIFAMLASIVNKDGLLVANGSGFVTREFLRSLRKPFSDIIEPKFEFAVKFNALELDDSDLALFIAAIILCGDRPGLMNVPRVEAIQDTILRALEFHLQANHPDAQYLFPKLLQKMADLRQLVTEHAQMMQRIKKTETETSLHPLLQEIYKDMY
Method in brief: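 Fluorescence from CCF4 substrate cleavage by beta-lactamase reporter, read 2 hrs at RT, measured agonist activity. Compounds were tested with 18 hrs exposure at 37 C. Concentration-response data fitted to Hill equation.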

[5] = target: Peroxisome proliferator-activated receptor delta (Homo sapiens) (UniProt Q03181); experiment: qHTS assay for small molecule antagonists of peroxisome proliferator-activated receptor delta signaling (AID 588535; active = well fitted inhibition curve with a large enough effect in the signal ratio, with a control signal flat, not every such curve was filed as active; inconclusive = small, poorly fitted or top-dose-only effect, or effect the other way, or a change in a side signal; inactive = no such curve, though single readings can be large or run the other way; the % refers to the signal ratio; note: potency is the fitted concentration of half-maximal effect); details: HEK293T PPARd-UAS-bla, beta-lactamase FRET ratio, 18 h; activity change, negative = inhibition: at 76.7 µM (top of the series)
Method in brief: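 Antagonist-mode beta-lactamase reporter (GeneBLAzer PPAR-delta-UAS-bla) in HEK293T cells, 2% charcoal/dextran FBS, 4000 cells/well. Compound titrations, 18 h at 37 C; CCF4 ratio read, IC50 and efficacy from Hill fits.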

[6] = target: Peroxisome proliferator-activated receptor gamma (Homo sapiens) (UniProt P37231); experiment: qHTS assay for small molecule agonists of peroxisome proliferator-activated receptor gamma signaling (AID 588536; active = well fitted curve in the direction sought with a large enough effect in the signal ratio, with a control signal flat, not every such curve was filed as active; inconclusive = small, poorly fitted or top-dose-only effect, or effect the other way, or a change in a side signal; inactive = no such curve, though single readings can be large or run the other way; the % refers to the signal ratio;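 note: 0% = DMSO basal wells and 100% = rosiglitazone at 2 µM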); details: HEK293 PPARg-UAS-bla, beta-lactamase ratio, 16 h; activation: at 76.7 µM (top of the series), percent of rosiglitazone response, DMSO as zero
Method in brief: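 HEK293 UAS-bla reporter line, 1% charcoal/dextran FBS; titration, 16 h, 37 C; CCF4 loading 2 h RT; fluorescence 460/530 nm. Normalized to rosiglitazone 2 uM = 100%, DMSO = 0%.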

[7] = target: Peroxisome proliferator-activated receptor gamma (Homo sapiens) (UniProt P37231); experiment: qHTS assay for small molecule antagonists of peroxisome proliferator-activated receptor gamma signaling (AID 588537; active = well fitted inhibition curve with a large enough effect in the signal ratio, with a control signal flat, not every such curve was filed as active; inconclusive = small, poorly fitted or top-dose-only effect, or effect the other way, or a change in a side signal; the % refers to the signal ratio;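 note: reporter cells co-stimulated with 50 nM rosiglitazone agonist during compound treatment; % of control where 0% means no effect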); details: HEK293 PPARg-UAS-bla, beta-lactamase ratio, antagonist mode; activity, negative = inhibition: at 76.8 µM (top of the series)
Method in brief: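 PPARγ-UAS-bla HEK293 cells (3000/well) in 1% charcoal/dextran-stripped FBS are treated with compound, then stimulated with 50 nM rosiglitazone for 16 h at 37 °C. Read-out is CCF4 β-lactamase fluorescence after 2 h at RT. IC50 comes from Hill fits normalised to rosiglitazone and DMSO.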

[8] = target: Retinoic acid receptor RXR-alpha (Homo sapiens) (UniProt P19793); experiment: qHTS assay for small molecule agonists of retinoid X receptor alpha signaling (AID 588544; calls by dose curve; note: potency is the fitted concentration of half-maximal effect); details: HEK293T RXRa-UAS-bla, beta-lactamase reporter, 18 h; activation: at 76.7 µM (top of the series)
UniProt P19793, sequence (P19793 whole entry, looked up): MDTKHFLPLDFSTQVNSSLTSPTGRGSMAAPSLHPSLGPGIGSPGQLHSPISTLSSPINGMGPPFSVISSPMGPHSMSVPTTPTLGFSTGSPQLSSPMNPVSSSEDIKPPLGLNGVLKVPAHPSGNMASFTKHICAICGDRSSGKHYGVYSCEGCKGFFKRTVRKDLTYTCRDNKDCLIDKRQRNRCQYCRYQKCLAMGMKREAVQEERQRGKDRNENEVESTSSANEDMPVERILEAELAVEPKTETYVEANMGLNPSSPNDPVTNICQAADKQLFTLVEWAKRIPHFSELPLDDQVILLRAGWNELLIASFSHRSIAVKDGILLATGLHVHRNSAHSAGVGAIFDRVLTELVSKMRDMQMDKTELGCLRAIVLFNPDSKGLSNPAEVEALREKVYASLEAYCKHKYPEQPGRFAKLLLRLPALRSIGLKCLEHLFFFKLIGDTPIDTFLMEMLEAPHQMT

[9] = target: Thyroid hormone receptor beta (Homo sapiens) (UniProt P10828); experiment: qHTS assay for small molecule agonists of thyroid hormone receptor beta signaling (AID 588545; calls by dose curve; note: potency is the fitted concentration of half-maximal effect); details: TR-UAS-bla GripTite HEK 293, beta-lactamase ratio, agonist mode, 18 h; activation: at 76.7 µM, percent of T3 response, DMSO as zero
UniProt P10828, sequence (P10828 whole entry, looked up): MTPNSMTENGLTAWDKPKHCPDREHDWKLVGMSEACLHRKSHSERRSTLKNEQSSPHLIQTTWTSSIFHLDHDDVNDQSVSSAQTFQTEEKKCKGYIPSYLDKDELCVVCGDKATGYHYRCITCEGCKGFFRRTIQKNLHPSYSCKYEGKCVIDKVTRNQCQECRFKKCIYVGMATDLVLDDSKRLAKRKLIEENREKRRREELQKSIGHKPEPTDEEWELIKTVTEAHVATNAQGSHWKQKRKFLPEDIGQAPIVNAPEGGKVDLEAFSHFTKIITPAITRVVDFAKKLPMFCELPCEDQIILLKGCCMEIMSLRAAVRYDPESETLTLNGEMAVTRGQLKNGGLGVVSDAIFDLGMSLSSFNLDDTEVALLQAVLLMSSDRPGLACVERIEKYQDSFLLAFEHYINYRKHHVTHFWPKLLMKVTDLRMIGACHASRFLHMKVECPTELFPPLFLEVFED
Method in brief: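 Stimulation of a TR-driven beta-lactamase reporter was quantified in GripTite HEK 293 cells. Compound series ran for 18 hrs; curves were normalized to T3 and DMSO controls and fitted to yield EC50.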

[10] = target: Thyroid hormone receptor beta (Homo sapiens) (UniProt P10828); experiment: qHTS assay for small molecule antagonists of thyroid hormone receptor beta signaling (AID 588547; active = well fitted inhibition curve with a large enough effect in the signal ratio, with a control signal flat, not every such curve was filed as active; inconclusive = small, poorly fitted or top-dose-only effect, or effect the other way, or a change in a side signal; the % refers to the signal ratio; note: potency is the fitted concentration of half-maximal effect); details: TR-UAS-bla HEK293, beta-lactamase ratio, antagonist mode, 18 h
Method in brief: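 TR-UAS-bla GripTite HEK293 cells in 2% charcoal/dextran FBS medium; compounds 0.59 nM to 92 uM with T3 at 0.4nM final, 18 h at 37 C. Beta-lactamase read by CCF4 fluorescence (460/530 nm); Hill fits gave IC50 and efficacy.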

[11] = target: Glutaminase kidney isoform, mitochondrial (Homo sapiens) (UniProt O94925); experiment: qHTS for Inhibitors of Glutaminase (GLS): LOPAC Validation (AID 624146);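 note: glutamate product detected by oxidase and peroxidase coupled Amplex red fluorescence gain; % is set by controls: 0 for no effect and ±100 for the full control effect; nearly all actives have a fitted effect of over 60% in size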
UniProt O94925, sequence (O94925 whole entry, looked up, canonical isoform): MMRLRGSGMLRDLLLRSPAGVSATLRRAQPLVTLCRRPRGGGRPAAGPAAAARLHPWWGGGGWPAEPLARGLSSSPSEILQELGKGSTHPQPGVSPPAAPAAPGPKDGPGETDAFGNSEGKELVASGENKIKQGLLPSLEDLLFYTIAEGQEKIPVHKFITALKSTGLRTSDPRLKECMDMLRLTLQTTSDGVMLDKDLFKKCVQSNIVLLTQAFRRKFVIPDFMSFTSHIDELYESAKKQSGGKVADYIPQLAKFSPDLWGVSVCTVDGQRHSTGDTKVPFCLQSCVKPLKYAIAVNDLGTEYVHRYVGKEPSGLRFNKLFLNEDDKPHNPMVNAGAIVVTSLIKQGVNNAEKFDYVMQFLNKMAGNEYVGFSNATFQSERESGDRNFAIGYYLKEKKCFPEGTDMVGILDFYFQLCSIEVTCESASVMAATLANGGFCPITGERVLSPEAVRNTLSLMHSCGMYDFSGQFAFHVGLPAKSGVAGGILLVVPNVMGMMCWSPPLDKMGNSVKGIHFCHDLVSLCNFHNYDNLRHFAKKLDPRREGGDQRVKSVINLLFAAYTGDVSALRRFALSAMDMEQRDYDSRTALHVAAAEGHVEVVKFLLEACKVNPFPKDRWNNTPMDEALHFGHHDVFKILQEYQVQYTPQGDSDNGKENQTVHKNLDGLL
Method in brief: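 Two-point fluorescence kinetic (t0, 30 min RT) for hKGA; glutamate detected via glutamate oxidase–HRP–Amplex Red. Substrate: 1 mM L-glutamine solution; buffer 45 mM KH2PO4, pH 8.2.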

[12] = qHTS assay for small molecule agonists of the antioxidant response element (ARE) signaling pathway (AID 651741; active = well fitted activation curve with a large enough effect in the signal ratio; inconclusive = small, poorly fitted or top-dose-only effect, or effect the other way, or a change in a side signal; the % refers to the signal ratio; note: potency is the fitted concentration of half-maximal effect); details: HepG2 ARE-bla reporter, beta-lactamase FRET ratio, 16 h; activation: at 96 µM (top of the series)
Method in brief: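 CellSensor ARE-bla HepG2 cells (2,000/well) carrying ARE-driven beta-lactamase, exposed 16 h at 37 C. LiveBLAzer B/G FRET substrate added for 2 h at room temperature; fluorescence intensity read.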

[13] = qHTS assay for small molecule activators of the p53 signaling pathway (AID 651743; active = well fitted activation curve with a large enough effect in the signal ratio, not every such curve was filed as active; inconclusive = small, poorly fitted or top-dose-only effect, or a change in a side signal; the % refers to the signal ratio; note: potency is the fitted concentration of half-maximal effect); details: HCT-116 p53RE-bla, beta-lactamase FRET ratio, 16 h; activation: active compounds read high
Method in brief: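 p53RE-bla HCT-116 cells carrying a beta-lactamase reporter under p53 response elements were exposed to compounds for 16 hours at 37 C. Reporter activity read as fluorescence after 2 hours at room temperature with LiveBLAzer B/G FRET substrate.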

[14] = qHTS assay for small molecule activators of the nuclear factor-kappa B (NF-kB) signaling pathway (AID 651749; active = well fitted activation curve with a large enough effect in the signal ratio; inconclusive = small, poorly fitted or top-dose-only effect, or a change in a side signal; the % refers to the signal ratio; note: potency is the fitted concentration of half-maximal effect); details: NF-kB-bla ME-180 cells, beta-lactamase FRET ratio, 16 h
Method in brief: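 NF-kB-bla ME-180 cells carrying a beta-lactamase reporter under an NF-kB response element, 2,000 cells/well, exposed to compound for 16 hr at 37C; FRET-based beta-lactamase fluorescence read-out of pathway activation.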

[15] = target: Peroxisome proliferator-activated receptor alpha (Homo sapiens) (UniProt Q07869); experiment: qHTS assay for small molecule agonists of the peroxisome proliferator-activated receptor alpha (PPARalpha) signaling pathway (AID 651778); details: PathHunter PPARalpha complementation, chemiluminescence, 6 h; note: potency is the fitted concentration of half-maximal effect
UniProt Q07869, sequence (Q07869 whole entry, looked up, the tested form may be a part): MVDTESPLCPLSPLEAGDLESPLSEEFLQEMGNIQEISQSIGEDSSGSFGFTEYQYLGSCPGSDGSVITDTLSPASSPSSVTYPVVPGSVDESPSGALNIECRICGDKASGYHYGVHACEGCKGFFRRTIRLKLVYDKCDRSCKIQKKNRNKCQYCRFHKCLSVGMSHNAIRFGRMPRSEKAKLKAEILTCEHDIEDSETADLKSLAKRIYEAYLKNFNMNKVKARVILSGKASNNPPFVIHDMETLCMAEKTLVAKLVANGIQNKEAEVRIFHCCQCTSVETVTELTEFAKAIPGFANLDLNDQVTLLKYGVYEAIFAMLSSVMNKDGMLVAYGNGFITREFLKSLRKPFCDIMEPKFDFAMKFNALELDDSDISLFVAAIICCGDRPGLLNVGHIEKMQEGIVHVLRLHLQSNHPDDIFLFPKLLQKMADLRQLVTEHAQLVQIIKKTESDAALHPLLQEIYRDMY
Method in brief: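 Enzyme-fragment complementation assay in which ligand-bound PPARalpha translocates and forms an active enzyme that generates chemiluminescence. Cells were plated overnight, exposed to compound for 6 hr at 37 C, and then given detection reagent for 60 min at room temperature.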

[16] = qHTS assay for small molecule agonists of the antioxidant response element (ARE) signaling pathway measured by Nrf2-dependant transcriptional activity (AID 720636; active = well fitted curve in the direction sought with a large enough effect in the repeat runs; inconclusive = weak or mixed curves; inactive = no such curve, though single readings can be large; an effect the other way counts as inactive or inconclusive; note: % of control where 0% means no effect)
Method in brief: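 ARE-luc HepG2 cells carrying an Nrf2-responsive luciferase reporter were plated in medium with 1% dialyzed FBS, left 6 hr at 37 C to attach, then exposed to compound for 16 hr. Luciferase luminescence was read after ONE-Glo addition.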

[17] = test system: Zika virus NS2B-NS3 protease (unlinked); experiment: Optimization of GU AMC qHTS for Zika virus inhibitors: Unlinked NS2B-NS3 protease assay (AID 1347151); details: recombinant ZIKV NS2B-NS3 protease, fluorogenic AMC substrate; activity change, negative = inhibition: at 52.5 µM (top of the series) unless noted; note: potency is the fitted concentration of half-maximal effect; nearly all actives have a fitted effect of over 80% in size
Method in brief: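 Fluorescence gain (340/450 nm) over 15 min at room temperature, ~20% conversion, gave percent inhibition fitted to a 4-parameter Hill equation; enzyme was unlinked NS2B-NS3 (25 nM final), pH 8.0 Tris buffer.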

[18] = test system: Zika virus NS2B-NS3 protease; experiment: Primary screen GU AMC qHTS for Zika virus inhibitors (AID 1347154); note: potency is the fitted concentration of half-maximal effect; nearly all actives have a fitted effect of over 70% in size
Method in brief: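 Unlinked Zika NS2B hydrophilic domain–NS3 protease complex at 25 nM in 10 mM Tris-HCl pH 8.0, 0.01% Tween 20, with an AMC peptide substrate. Fluorescence change (340/450 nm) over 15 min at room temperature, normalized to controls, fitted to 4-parameter Hill.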

[19] = ZIKV-mCherry secondary qHTS for Zika virus inhibitors (AID 1347158); details: Vero cells, ZIKV-mCherry infection imaging, 48-72 h; activity change, negative = inhibition: at 49.2 µM (top of the series); note: potency is the fitted concentration of half-maximal effect
Method in brief: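 Vero, 5,000 cells/well, o/n 37 °C; cpd pin-transferred in DMSO; ZIKV-mCherry MOI 1, 48-72 h 37 °C; 32% PFA stock fix, Hoechst; imaged 10x DAPI/mCherry; mCherry+ threshold 450 RFU; % infection.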

[20] = test system: Zika virus NS2B-NS3 protease (linked); experiment: 384 well plate NINDS AMC confirmatory qHTS for Zika virus inhibitors (AID 1347163);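 note: linked protease at 5 30 or 60 nM final depending on run; fluorescence of AMC released from Ac-VKTGKR-AMC peptide cleaved by the protease; top concentration of the series differs between compounds; 0% = no-inhibitor control and -100% = no-enzyme control; nearly all actives have a fitted effect of over 50% in size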
Method in brief: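 Linked NS2B-NS3 protease (final 5 nM, 30 nM or 60 nM) was preincubated with compounds (final up to 1 mM) for ~15 minutes. Ac-VKTGKR-AMC substrate (final 30 microM) then reacted for 25 minutes at room temperature in the dark. Fluorescence (ex 355/em 460 nm) was normalized to no-enzyme and no-inhibitor controls.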

[21] = test system: Zika virus NS2B-NS3 protease (linked construct); experiment: 384 well plate NINDS Rhodamine confirmatory qHTS for Zika virus inhibitors (AID 1347164);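 note: fluorescence from protease cleavage of Ac-LKRR-rhodamine 110 substrate; top concentration of the series differs between compounds; plate controls were no-inhibitor control for no effect and no-enzyme control for full effect; nearly all actives have a fitted effect of over 65% in size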
Method in brief: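 Fluorescence at 485/538 nm was measured 25 minutes after adding 10 microM Ac-LKRR-Rd substrate, in the dark at room temperature. The protease (5, 30 or 60 nM final) had been preincubated ~15 minutes with compound; aprotinin as control.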

[22] = target: Lysine-specific demethylase 5B (Homo sapiens) (UniProt Q9UGL1); experiment: Optimization screen for KDM5B Histone Demethylases FDH coupled qHTS against the LOPAC library (AID 1347166); details: KDM5B demethylation, FDH-coupled NADH fluorescence (FDH is formaldehyde dehydrogenase); activity, negative = inhibition: at 57.5 µM (top of the series) unless noted; note: 0% is about no effect
UniProt Q9UGL1, sequence (Q9UGL1 whole entry, looked up): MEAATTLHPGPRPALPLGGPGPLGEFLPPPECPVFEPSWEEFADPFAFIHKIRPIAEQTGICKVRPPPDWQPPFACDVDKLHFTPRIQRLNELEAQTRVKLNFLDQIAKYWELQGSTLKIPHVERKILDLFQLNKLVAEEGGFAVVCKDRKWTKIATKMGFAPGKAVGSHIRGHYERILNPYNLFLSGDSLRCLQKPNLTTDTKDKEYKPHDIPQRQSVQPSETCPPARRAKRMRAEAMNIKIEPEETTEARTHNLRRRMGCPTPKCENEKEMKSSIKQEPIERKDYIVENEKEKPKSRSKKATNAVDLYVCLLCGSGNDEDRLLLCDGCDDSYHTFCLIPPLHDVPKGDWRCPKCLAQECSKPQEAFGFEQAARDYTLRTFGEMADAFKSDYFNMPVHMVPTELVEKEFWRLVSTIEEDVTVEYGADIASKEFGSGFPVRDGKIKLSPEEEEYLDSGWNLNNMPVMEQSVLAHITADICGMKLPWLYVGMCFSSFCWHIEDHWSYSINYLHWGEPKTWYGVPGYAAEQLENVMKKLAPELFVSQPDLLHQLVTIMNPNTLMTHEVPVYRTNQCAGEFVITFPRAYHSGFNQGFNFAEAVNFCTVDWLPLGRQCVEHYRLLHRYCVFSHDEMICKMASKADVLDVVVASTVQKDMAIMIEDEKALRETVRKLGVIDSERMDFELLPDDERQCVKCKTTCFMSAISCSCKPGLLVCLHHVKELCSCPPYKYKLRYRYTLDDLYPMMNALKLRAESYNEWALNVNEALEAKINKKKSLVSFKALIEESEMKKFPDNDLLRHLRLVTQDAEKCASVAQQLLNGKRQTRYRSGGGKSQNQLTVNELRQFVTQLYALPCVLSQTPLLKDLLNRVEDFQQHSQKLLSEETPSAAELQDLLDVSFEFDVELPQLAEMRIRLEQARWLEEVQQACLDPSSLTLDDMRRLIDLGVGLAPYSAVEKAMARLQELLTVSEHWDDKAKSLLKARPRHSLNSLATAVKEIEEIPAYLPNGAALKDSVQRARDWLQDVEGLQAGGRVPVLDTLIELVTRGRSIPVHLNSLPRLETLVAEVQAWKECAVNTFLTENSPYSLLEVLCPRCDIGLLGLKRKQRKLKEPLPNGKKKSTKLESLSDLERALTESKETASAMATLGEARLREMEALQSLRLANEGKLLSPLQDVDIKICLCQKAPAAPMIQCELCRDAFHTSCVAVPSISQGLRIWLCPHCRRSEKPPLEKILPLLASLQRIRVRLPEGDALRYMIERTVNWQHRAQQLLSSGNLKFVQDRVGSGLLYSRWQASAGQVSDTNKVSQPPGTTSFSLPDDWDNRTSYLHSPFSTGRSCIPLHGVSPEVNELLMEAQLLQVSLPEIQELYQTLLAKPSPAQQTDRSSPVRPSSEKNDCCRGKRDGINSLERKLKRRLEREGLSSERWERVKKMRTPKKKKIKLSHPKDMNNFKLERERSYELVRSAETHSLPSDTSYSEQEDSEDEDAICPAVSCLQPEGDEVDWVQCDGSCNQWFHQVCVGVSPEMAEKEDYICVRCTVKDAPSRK
Method in brief: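 KDM5BDeltaAP (200nM final) preincubated 10 min with compound, then 12.5uM H3K4Me3, 25uM a-ketoglutarate, ascorbate, Fe(II), NAD+ and FDH added; 50mM HEPES pH 7.5, 0.01% Tween-20. NADH fluorescence (340/450 nm) change over 30 min, room temperature.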

[23] = Tertiary RLuc qRT-PCR qHTS assay for Zika virus inhibitors (AID 1347169); note: potency is the fitted concentration of half-maximal effect; nearly all actives have a fitted effect of over 55% in size
Method in brief: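 Orthogonal cell-based readout: luminescence measured 1-1.5 hrs after adding live-cell Renilla substrate to Vero cells that had been infected with ZIKV-RLuc (MOI 1-2) post-compound, incubated 48-72 hrs at 37 degrees C.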

[24] = target: Calcium and integrin-binding protein 1 (Homo sapiens) (UniProt Q99828); experiment: Validation qHTS for Identification of Calcium Integrin Binding protein 1 (CIB1) Competitor (AID 1508618); note: potency is the fitted concentration of half-maximal effect
UniProt Q99828, sequence (Q99828 whole entry, looked up): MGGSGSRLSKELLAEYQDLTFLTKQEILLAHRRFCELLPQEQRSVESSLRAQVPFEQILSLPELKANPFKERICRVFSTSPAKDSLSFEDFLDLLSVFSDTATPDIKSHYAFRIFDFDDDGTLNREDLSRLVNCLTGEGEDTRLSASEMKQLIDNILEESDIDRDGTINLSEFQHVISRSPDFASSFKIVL
Method in brief: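 In this qHTS validation, the LOPAC set (up to 114 uM) was tested for blocking CIB1 binding to a fluorescein-tagged alphaIIb peptide, with FP detection at 480/540 nm.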

[25] = Primary qHTS for small molecule stabilizers of the endoplasmic reticulum resident proteome: Secreted ER Calcium Modulated Protein (SERCaMP) assay (AID 1508630); details: SH-SY5Y GLuc-SERCaMP (Gaussia luciferase released on ER calcium loss) secretion, thapsigargin, luminescence; activity change, negative = inhibition: at 38.4 µM (top of the series) unless noted; note: potency is the fitted concentration of half-maximal effect
Method in brief: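 GLuc-SERCaMP-expressing SH-SY5Y cells, pretreated 16 h with compound, are challenged with thapsigargin to empty ER calcium stores; after 4 h, coelenterazine is added directly to the medium and luminescence is imaged.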

Papain (Carica papaya) = Papain (Carica papaya) (UniProt P00784); experiment: Primary qHTS assay for inhibitors of the protease papain (AID 1645873);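 note: papain turnover of Z-FR-AMC read as the AMC fluorescence gain over 10 min; potency is the fitted concentration of half-maximal effect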
UniProt P00784, sequence (P00784 whole entry, looked up): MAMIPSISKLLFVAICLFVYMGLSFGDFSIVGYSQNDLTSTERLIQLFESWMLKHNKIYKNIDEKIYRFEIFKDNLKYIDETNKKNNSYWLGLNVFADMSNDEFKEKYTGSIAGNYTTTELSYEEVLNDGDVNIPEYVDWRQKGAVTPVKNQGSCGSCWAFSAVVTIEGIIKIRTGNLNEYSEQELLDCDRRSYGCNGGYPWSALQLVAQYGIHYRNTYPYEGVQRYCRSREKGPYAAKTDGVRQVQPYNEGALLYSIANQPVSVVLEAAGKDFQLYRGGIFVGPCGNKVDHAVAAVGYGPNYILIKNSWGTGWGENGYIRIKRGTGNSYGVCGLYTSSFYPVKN
Tags give direction and shape of the fitted curve or compound fluorescence and quenching.

C/C(=C\c1ccc(C(=O)O)cc1)c1ccc2c(c1)C(C)(C)CCC2(C)C
inactive: Potency [1] | Potency [11] | Potency [16] | activity change, negative = inhibition [20] 5090% [at 100 µM] | activity change, negative = inhibition [21] -182% [at 100 µM]
inconclusive: Potency [2] 2.82 µM [side channel, falling, full curve, poor fit] | Potency [3] 39.8 µM [inhibitor, partial curve, poor fit] | Potency [4] 44.7 µM [side channel, rising, single point] | Potency [5] 44.7 µM [fluorescent, side channel, single point] | activation [6] -5.92% | activity, negative = inhibition [7] -4.8% | Potency [9] 35.5 µM [side channel, falling, single point] | Potency [10] 112 µM [side channel, falling, partial curve, poor fit] | Potency [13] 44.7 µM [side channel, falling, partial curve, poor fit] | Potency [14] 44.7 µM [side channel, falling, partial curve, poor fit] | Potency [15] 44.7 µM [activator, single point] | Potency [18] 8.44 µM [inhibitor, single point] | activity, negative = inhibition [22] -386% [inhibitor] [at 11.5 µM] | Potency [23] 8.27 µM [inhibitor, full curve] | Potency [24] 39.8 µM [inhibitor, full curve, poor fit] | Potency [25] 10 µM [inhibitor, partial curve, poor fit] | Potency (Papain (Carica papaya)) 1 µM [inhibitor, full curve]
active: Potency [8] 708 nM | Potency [12] 27.3 µM | Potency [17] 10.6 µM | Potency [19] 7.94 µM

Source: PubChem BioAssay (NCATS)
